“And” between values parts separate entries of the source, which are not always exact repeats. Equal values may be shown once. In all, about 420,000 compounds went through this assay and about 50,000 (12%) were called active. Inconclusive results, whose numbers are uncertain, are shown with a selection of clear calls. Calls come from the whole dose curve; as a rule, active = well fitted inhibition curve with a large enough effect; inconclusive = small, poorly fitted or top-dose-only effect; inactive = flat fitted curve, though single readings scatter. Potencies beside an inconclusive call are fits to weak or partial responses and may not hold up.
Assay: qHTS for Inhibitors of human tyrosyl-DNA phosphodiesterase 1 (TDP1): qHTS in cells in presence of CPT; note: nearly all actives have a fitted effect of over 55% in size
Conditions: chicken DT40 Tdp1-/-;hTDP1 cells + 20 nM CPT, ATP luminescence, 48 h; activity change, negative = growth inhibition: at 46.2 µM (top of the series)
How it was run: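 Chicken DT40 Tdp1-/- cells complemented with human TDP1, 400 cells/well, exposed to compounds plus 20 nM camptothecin for at least 48 h at 37 C; viability read as ATP content by CellTiter-Glo luminescence.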
For `CCCCCN(C(=O)CCC(=O)OCc1cccc(C)c1)c1c(N)n(CCCC)c(=O)[nH]c1=O`, the Potency was active: 20.6 µM.
For `O=C(Nc1ccc(Cl)c(C(F)(F)F)c1)C(=O)N1CCCCC1`, the activity change, negative = growth inhibition was inconclusive: -32.3% [inhibitor].
In the case of `O=C(NCCCn1ccnc1)c1cc(-c2ccccc2)on1`, the Potency is reported as inconclusive: 23.1 µM [inhibitor, single point].
For `CC(C)(C)OC(=O)NC(CNCc1ccccc1)Cc1ccccc1` (stereo not given), the Potency was active: 13 µM.
In the case of `COc1ccccc1/C=C/CN1CCC(Oc2ccc(C(=O)N3CCCC3)cc2)CC1`, the Potency is reported as inconclusive: 23.1 µM [inhibitor, single point].
For `Cc1ccc(NC(=O)CSc2ncnc3ccccc23)cc1S(=O)(=O)N1CCCCCC1`, the Potency was active: 25.9 µM.
In the case of `O=C(c1cccc(S(=O)(=O)Nc2ccc(F)cc2)c1)N1CCC1`, the “activity change, negative = growth inhibition” value is reported as inactive: -7.04%.
For `Cc1nc2sc(C(c3cccs3)N3CCC4(CC3)OCCO4)c(O)n2n1` (stereo not given), the “activity change, negative = growth inhibition” value was inactive: 3.6%.
For `COc1ccc(N(CC(=O)N2CCN(c3cc(C)ccc3C)CC2)S(=O)(=O)c2c(C)noc2C)cc1`, the Potency was active: 23.1 µM.
With `O=C(C[C@@H]1C/C=C\C[C@H](Cc2ccc(F)cc2)C(=O)OC[C@H]2CCCN2C1=O)N[C@H](CO)Cc1ccccc1` the Potency was active: 13 µM.
For `O=C(CNc1ccccc1N1CCCC1=O)Nc1cc(C(F)(F)F)ccc1-n1cncn1`, the “activity change, negative = growth inhibition” value was inactive: 2.56%.
With `Cc1ccc2[nH]c(=O)c3cc(C(=O)N(C)C4CCCCC4)sc3c2c1` the “activity change, negative = growth inhibition” value was inactive: -2.98%.
In the case of `CC(C)c1ccc(C2c3c(-c4ccccc4O)n[nH]c3C(=O)N2CCc2ccccc2)cc1` (stereo not given), the Potency is reported as inconclusive: 18.4 µM [inhibitor, single point].
With `CC(=O)Nc1ccccc1-c1nnc(SCc2ccccc2Cl)[nH]c1=O` the “activity change, negative = growth inhibition” value was inactive: -20.5%.
For `Cc1onc(-c2ccccc2)c1C(=O)OCC(=O)Nc1ccccc1Cl`, the activity change, negative = growth inhibition was inconclusive: -32.5% [inhibitor].
With `O=C(N/N=C/c1ccccc1O)c1ccc2c(c1)OCO2` the Potency was active: 5.17 µM.
With `Cc1ccc(NC(=O)c2cccs2)cc1S(=O)(=O)Nc1cccc(Cl)c1` the “activity change, negative = growth inhibition” value was inactive: -13.2%.
For `C=CCOC(=O)N1CCC2CC1c1c(-c3ccc(C(F)(F)F)cc3)cccc12` (stereo not given), the Potency was active: 23.1 µM.
For `CC1CCN(c2ncnc3ccccc23)CC1`, the Potency was active: 13 µM.
In the case of `Cc1cc(OC(=O)c2cccc(C(F)(F)F)c2)c([N+](=O)[O-])c(=O)[nH]1`, the “activity change, negative = growth inhibition” value is reported as inactive: -0.468%.
With `CC1=CC(C)(C)N(S(=O)(=O)c2ccc(F)cc2)c2ccc(C)cc21` the Potency was inconclusive: 29.1 µM [inhibitor, single point].
In the case of `Cc1ccc(C)c(NS(=O)(=O)c2ccc3c(c2)Cc2cc(S(=O)(=O)Nc4cc(C)ccc4C)ccc2-3)c1`, the Potency is reported as active: 20.6 µM.
In the case of `COc1ccc(-c2c(C)nn3c(N4CCC(C(=O)NCCC(C)C)CC4)cc(C)nc23)cc1OC`, the Potency is reported as inconclusive: 4.11 µM [inhibitor, full curve, poor fit].
For `NCCCCCc1nnc(SC/C=C/c2ccccc2)o1`, the Potency was active: 18.4 µM.
With `COc1cc(C(=O)N/N=C/c2sc(N3CCOCC3)nc2-c2ccccc2)cc(OC)c1OC` the “activity change, negative = growth inhibition” value was inactive: -7.53%.
For `Cc1ccc(-n2ncc3c(NNC(=O)c4ccccc4C)ncnc32)cc1`, the Potency was inconclusive: 25.9 µM [inhibitor, single point].
In the case of `COc1ccc(C(OCC(O)CN(C)C2CCCCC2)c2ccc(OC)cc2)cc1` (stereo not given), the Potency is reported as active: 16.4 µM.
For `C=CCSc1nc2sc(C)c(C)c2c(=O)n1N`, the Potency was inconclusive: 23.1 µM [inhibitor, partial curve, poor fit].
In the case of `Cc1cccc(NC(=O)c2cccc(S(=O)(=O)N3CCCC3)c2)n1`, the “activity change, negative = growth inhibition” value is reported as inactive: -29.7%.
In the case of `Cc1ccc2nc(SCC(=O)Nc3cc(C(F)(F)F)ccc3N3CCOCC3)[nH]c2c1`, the Potency is reported as active: 0.82 µM.
For `CCN(CC)CCn1c(=N)n(CC(O)COc2ccccc2C)c2ccccc21` (stereo not given), the Potency was active: 8.2 µM.
For `Cc1ccc(OCCCC(=O)Nc2ccc(S(=O)(=O)N3CCOCC3)cc2)cc1`, the Potency was inconclusive: 9.2 µM [inhibitor, partial curve].
In the case of `O=C(Nc1cc2c(=O)n(-c3ccc(Oc4ccccc4)cc3)ccc2oc1=O)c1ccccc1`, the Potency is reported as inconclusive: 11.6 µM [inhibitor, partial curve, poor fit].
In the case of `CCC(NC(=O)CCc1c(C)c2cc3c(-c4ccccc4)coc3cc2oc1=O)C(=O)O` (stereo not given), the “activity change, negative = growth inhibition” value is reported as inactive: -9.92%.
With `CCn1c(CSc2nnc(-c3ccc4c(c3)OCO4)o2)nc2cc(S(=O)(=O)N(C)C)ccc21` the Potency was inconclusive: 25.9 µM [inhibitor, single point].
With `Cc1n[nH]c(C)c1CCC(=O)N/N=C/C=C/c1ccccc1` the “activity change, negative = growth inhibition” value was inactive: -11.6%.
In the case of `O=c1c2ccccc2ncn1CCCCOc1ccccc1F`, the “activity change, negative = growth inhibition” value is reported as inactive: -27.2%.
With `Cc1cccc(C)c1N1C(=O)c2ccccc2NC(=O)C1C(=O)NCCc1ccccc1` (stereo not given) the “activity change, negative = growth inhibition” value was inactive: -16.6%.
For `CCOc1ccc2[nH]c(=O)c(CN(CCN3CCOCC3)Cc3nnnn3C(C)(C)CC)cc2c1`, the activity change, negative = growth inhibition was inconclusive: -31.1% [inhibitor].
In the case of `COc1ccc(NC(=O)CCOc2ccc(C)cc2)cc1S(=O)(=O)N1CCCCC1`, the Potency is reported as inconclusive: 32.6 µM [inhibitor, single point].
In the case of `NS(=O)(=O)c1ccc(CCNC(=O)c2cccc(S(=O)(=O)N3CCCC3)c2)cc1`, the “activity change, negative = growth inhibition” value is reported as inactive: 7.32%.
For `S=C1NC[C@H](Cc2cccc3ccccc23)N1CC1CCCCC1`, the Potency was inconclusive: 29.1 µM [inhibitor, single point].
In the case of `O=c1cc(CN2CCCCC2)nc(C2CC2)[nH]1`, the “activity change, negative = growth inhibition” value is reported as inactive: 4.41%.
With `Cc1sc(NC(=O)CN(Cc2ccccc2)C(=O)C(C)C)c(C(N)=O)c1C` the Potency was active: 1.84 µM.
For `CCOc1ccc(NC(=O)C(=O)N/N=C\c2ccc(CNS(=O)(=O)c3ccccc3)o2)cc1`, the Potency was inconclusive: 29.1 µM [inhibitor, single point].
For `CCOC(=O)c1cc(NC(=O)NC2CCCCC2)c(C)nc1C`, the “activity change, negative = growth inhibition” value was inactive: -13.4%.
For `COCCCNC(=O)/C(C#N)=C/c1cccc(NC(=O)c2ccccc2Cl)c1`, the Potency was active: 2.59 µM.
With `CCc1nc(SCC(=O)Nc2cc(C)on2)c2c(C)c(C)sc2n1` the “activity change, negative = growth inhibition” value was inactive: -28.8%.
For `CCOc1ccc(NC(=O)CN(C)C(=O)C2CCCC2)cc1OCC`, the “activity change, negative = growth inhibition” value was inactive: 5.06%.
With `C=C1CC(COc2cc(=O)oc3ccccc23)(c2ccccc2)OC1=O` (stereo not given) the Potency was active: 1.16 µM.
In the case of `O=C(Nc1ccc(O)cc1)c1c(O)c2c([nH]c1=O)CCCC2`, the “activity change, negative = growth inhibition” value is reported as inactive: -0.777%.
With `CCOC(=O)C1(CCCc2ccccc2)CCN(C(=O)CCOC)CC1` the “activity change, negative = growth inhibition” value was inactive: -0.22%.
For `CCN(CC)S(=O)(=O)c1ccc(C(=O)Nc2ccc3c(c2)OCO3)cc1`, the “activity change, negative = growth inhibition” value was inactive: 2.66%.
For `O=C(Nc1cccc(Cl)c1)C1COc2ccccc2O1` (stereo not given), the “activity change, negative = growth inhibition” value was inactive: -10.8%.
In the case of `COc1ccc(NC(C)=O)cc1S(=O)(=O)Nc1ccc(OCc2ccccc2)cc1`, the Potency is reported as active: 16.4 µM.
In the case of `C#CC1(O)CC[C@H]2[C@@H]3CCC4=CCCC[C@@H]4[C@H]3CC[C@@]21C` (stereo not given in full), the “activity change, negative = growth inhibition” value is reported as inactive: -26.4% [at 21.1 µM].
With `Fc1ccc(CNc2cnccn2)cc1` the “activity change, negative = growth inhibition” value was inactive: -12%.
For `Cc1ccc(C(C)C)c(OCCCN(C)Cc2ccccc2)c1`, the Potency was active: 16.4 µM.
For `COc1ccc(Cl)cc1NC(=O)CCCn1c(=O)c2cccn2c2cccnc21`, the Potency was inconclusive: 20.6 µM [inhibitor, single point] and inconclusive: 29.1 µM [inhibitor, single point].
In the case of `COc1cc(CNC(=O)c2cc(-c3cc(F)ccc3OCC3CCCO3)n[nH]2)cc(OC)c1` (stereo not given), the Potency is reported as inconclusive: 20.6 µM [inhibitor, single point].
With `CC(C)C[C@H]1CNC(=S)N1CC1CCCN1C[C@H](CC(C)C)N1C[C@H](CC(C)C)N(CC2CCCCCC2)C1=S` (stereo not given in full) the Potency was active: 18.4 µM.
In the case of `Cc1nn(Cc2ccccc2)c(Cl)c1C(=O)OCC(=O)NC(=O)NC12CC3CC(CC(C3)C1)C2`, the Potency is reported as inconclusive: 29.1 µM [inhibitor, single point].
With `CCOC(=O)c1ccccc1NC(=O)N(Cc1ccc(C)cc1)Cc1cccn1-c1nnc(N2CCCC2=O)s1` the Potency was active: 23.1 µM.
For `CCNC(=O)C1(C)CCN(Cc2csc(-c3ccccc3)n2)C1` (stereo not given), the Potency was inconclusive: 25.9 µM [inhibitor, single point].
For `CCOC(=O)N1CCc2c(sc(NCc3ccc(OC)c(Br)c3)c2C(=O)Nc2cc(OC)ccc2OC)C1`, the Potency was inconclusive: 23.1 µM [inhibitor, single point].
For `COC(=O)[C@]12CCCCC=C1N(CCc1ccc(OC)c(OC)c1)C(=O)[C@H](CC(=O)NCc1cccc(C(F)(F)F)c1)C2`, the Potency was inconclusive: 29.1 µM [inhibitor, single point].
In the case of `CCOC(=O)N1CC(=O)Nc2ccc(Br)cc2C1c1ccccc1` (stereo not given), the Potency is reported as inconclusive: 23.1 µM [inhibitor, single point].
With `O=C(c1ccccc1)N1CCC(CC2CC(c3ccc(Cl)cc3)=NO2)(C(=O)NCC2CCCCC2)CC1` (stereo not given) the Potency was inconclusive: 29.1 µM [inhibitor, single point].
With `CCn1c(CSCc2ccc(F)cc2)nnc1SCC(=O)N1CCN(c2ccccc2)CC1` the Potency was inconclusive: 18.4 µM [inhibitor, partial curve].
In the case of `CCCn1c(COc2ccccc2)nc2ccccc21`, the Potency is reported as inconclusive: 20.6 µM [inhibitor, partial curve].
In the case of `Cc1cccc(N(Cc2ccccc2)C(=O)CSC(C)C(=O)Nc2cc(C)on2)c1` (stereo not given), the Potency is reported as inconclusive: 25.9 µM [inhibitor, single point].
With `CCc1cc2c(=O)[nH]c(-c3ccncc3)nc2s1` the “activity change, negative = growth inhibition” value was inactive: -16.5%.
With `COC(=O)c1c(NC(=O)c2ccc(S(=O)(=O)N3CCCCC3C)cc2)sc2c1CCN(C(C)C)C2` (stereo not given) the Potency was inconclusive: 29.1 µM [inhibitor, partial curve, poor fit].
In the case of `Cc1ccccc1Cn1cnc2c([N+](=O)[O-])c(C)c(C)cc21`, the Potency is reported as inconclusive: 29.1 µM [inhibitor, single point].
For `CCOc1ccc(C(NC(=O)/C=C/c2ccco2)c2ccc(OC)c(OC)c2)cc1` (stereo not given), the “activity change, negative = growth inhibition” value was inactive: 0.92%.
% is set by controls: 0 for no effect and ±100 for the full control effect; potency is the fitted concentration of half-maximal effect; tags give direction and shape of the fitted curve.
